Data taken from article PMC6777367.
Read-outs that look alike come from different tables or passages of the source. These are yes or no findings as the source states them, for the method shown. In cells and extracts the contact can be indirect. Some binding calls cover weakened binding; strength is not graded here. For some assays here: Where a sequence is shown, tags or fusion partners need not be part of it. Values belong to the molecule of their own block, whether it stands above or below them.

Sequences of proteins named here, by UniProt entry; tags and fusion partners are left off. A change or cut given only in a name is not applied to a line headed by its entry.
UniProt Q8NFJ9: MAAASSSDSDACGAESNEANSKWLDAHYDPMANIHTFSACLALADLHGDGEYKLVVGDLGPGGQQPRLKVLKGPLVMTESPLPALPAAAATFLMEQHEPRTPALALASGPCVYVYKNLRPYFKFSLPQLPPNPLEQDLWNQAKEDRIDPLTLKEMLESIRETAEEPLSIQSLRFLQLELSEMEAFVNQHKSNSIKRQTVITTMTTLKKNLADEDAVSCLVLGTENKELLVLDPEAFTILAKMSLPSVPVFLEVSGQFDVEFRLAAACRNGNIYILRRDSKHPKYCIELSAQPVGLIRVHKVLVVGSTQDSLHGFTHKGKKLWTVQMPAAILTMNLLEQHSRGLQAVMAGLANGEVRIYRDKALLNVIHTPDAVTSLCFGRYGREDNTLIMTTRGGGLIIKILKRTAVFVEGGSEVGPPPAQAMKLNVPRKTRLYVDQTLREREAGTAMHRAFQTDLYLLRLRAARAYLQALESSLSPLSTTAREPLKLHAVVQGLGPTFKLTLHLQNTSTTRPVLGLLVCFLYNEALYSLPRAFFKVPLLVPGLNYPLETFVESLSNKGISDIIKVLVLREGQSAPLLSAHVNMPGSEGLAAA

What was measured:
Test in all cases: co-IP; visible immunoprecipitation (VIP) assay: lysates of co-transfected HEK293T cells (HMDEKN buffer: 10 mM HEPES pH 7.4, 5 mM MgSO4, 1 mM DTT, 0.5 mM EDTA, 25 mM KCl, 0.05% NP-40) precipitated by the EGFP fusion with GST-tagged anti-GFP nanobody on glutathione-Sepharose 4B beads; red fluorescence on the beads seen by microscopy
[1] = molecular target: EGFP-fused components of the IFT-B-connecting tetramer, IFT38/IFT52/IFT57/IFT88 (co-expressed) (UniProt Q96AJ1)
EGFP-IFT38(WT) (human) [2] = molecular target: T1, EGFP-IFT38(WT) (human) (UniProt Q96AJ1)
T1 sequence: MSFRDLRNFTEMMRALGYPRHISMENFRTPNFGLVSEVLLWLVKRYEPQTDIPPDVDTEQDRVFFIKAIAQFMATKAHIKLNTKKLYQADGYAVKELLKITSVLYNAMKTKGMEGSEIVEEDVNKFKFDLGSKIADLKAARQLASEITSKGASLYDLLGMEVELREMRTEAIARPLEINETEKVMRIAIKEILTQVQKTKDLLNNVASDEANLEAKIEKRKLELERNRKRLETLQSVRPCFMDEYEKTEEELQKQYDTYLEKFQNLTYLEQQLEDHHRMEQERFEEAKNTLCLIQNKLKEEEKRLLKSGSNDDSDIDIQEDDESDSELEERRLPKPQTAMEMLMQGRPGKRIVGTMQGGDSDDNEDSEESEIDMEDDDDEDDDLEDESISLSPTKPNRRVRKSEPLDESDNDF

EGFP-IFT57 = molecular target: T2, EGFP-IFT57 (UniProt Q9NWB7)
T2 sequence: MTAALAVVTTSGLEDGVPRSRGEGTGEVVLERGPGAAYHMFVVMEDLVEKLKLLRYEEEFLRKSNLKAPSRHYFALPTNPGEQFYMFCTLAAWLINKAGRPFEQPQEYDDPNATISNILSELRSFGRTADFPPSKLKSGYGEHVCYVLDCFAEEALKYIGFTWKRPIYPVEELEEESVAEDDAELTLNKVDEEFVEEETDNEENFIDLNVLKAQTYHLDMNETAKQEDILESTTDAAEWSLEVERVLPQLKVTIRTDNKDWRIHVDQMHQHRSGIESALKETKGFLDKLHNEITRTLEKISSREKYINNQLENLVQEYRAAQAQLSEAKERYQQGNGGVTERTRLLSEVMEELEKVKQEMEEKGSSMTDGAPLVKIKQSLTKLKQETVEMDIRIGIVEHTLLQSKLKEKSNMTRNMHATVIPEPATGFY

EGFP-IFT88 = molecular target: T3, EGFP-IFT88 (UniProt Q13099)
T3 sequence: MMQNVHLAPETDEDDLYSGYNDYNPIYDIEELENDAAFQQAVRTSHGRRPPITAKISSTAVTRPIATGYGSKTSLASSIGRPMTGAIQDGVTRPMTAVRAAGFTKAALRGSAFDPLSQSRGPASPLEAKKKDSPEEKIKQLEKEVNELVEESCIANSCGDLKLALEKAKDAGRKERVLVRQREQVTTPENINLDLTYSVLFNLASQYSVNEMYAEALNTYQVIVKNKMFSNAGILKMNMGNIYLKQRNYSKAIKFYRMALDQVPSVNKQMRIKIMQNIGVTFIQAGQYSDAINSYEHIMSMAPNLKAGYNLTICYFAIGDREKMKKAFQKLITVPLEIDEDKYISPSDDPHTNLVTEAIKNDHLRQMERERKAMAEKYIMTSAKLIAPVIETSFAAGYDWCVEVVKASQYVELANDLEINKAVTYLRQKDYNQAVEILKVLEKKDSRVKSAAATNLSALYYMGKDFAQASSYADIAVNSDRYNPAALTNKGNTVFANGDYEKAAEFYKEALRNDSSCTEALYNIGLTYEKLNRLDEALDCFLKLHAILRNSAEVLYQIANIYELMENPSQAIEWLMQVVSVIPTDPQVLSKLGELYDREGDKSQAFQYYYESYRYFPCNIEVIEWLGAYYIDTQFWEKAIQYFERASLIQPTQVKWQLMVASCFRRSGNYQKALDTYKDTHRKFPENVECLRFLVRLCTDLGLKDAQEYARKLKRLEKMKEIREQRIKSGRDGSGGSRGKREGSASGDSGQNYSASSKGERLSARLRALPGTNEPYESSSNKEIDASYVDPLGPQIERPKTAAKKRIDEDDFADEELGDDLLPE

EGFP-IFT52 = molecular target: T4, EGFP-IFT52 (UniProt Q9Y366)
T4 sequence: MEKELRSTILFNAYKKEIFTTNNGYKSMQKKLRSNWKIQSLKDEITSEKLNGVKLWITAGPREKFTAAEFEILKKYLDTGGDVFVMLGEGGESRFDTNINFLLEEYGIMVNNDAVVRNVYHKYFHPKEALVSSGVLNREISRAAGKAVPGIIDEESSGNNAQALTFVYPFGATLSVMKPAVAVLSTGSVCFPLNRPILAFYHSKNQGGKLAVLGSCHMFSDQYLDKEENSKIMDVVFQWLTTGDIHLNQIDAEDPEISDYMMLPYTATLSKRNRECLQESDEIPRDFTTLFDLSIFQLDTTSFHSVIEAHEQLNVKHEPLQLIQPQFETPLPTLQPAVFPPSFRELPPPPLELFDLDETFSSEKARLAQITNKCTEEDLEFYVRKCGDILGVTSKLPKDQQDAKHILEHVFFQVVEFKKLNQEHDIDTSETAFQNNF

EGFP-IFT38(ΔC) (human) = molecular target: T5, EGFP-IFT38(ΔC) (human) (UniProt Q96AJ1)
T5 sequence: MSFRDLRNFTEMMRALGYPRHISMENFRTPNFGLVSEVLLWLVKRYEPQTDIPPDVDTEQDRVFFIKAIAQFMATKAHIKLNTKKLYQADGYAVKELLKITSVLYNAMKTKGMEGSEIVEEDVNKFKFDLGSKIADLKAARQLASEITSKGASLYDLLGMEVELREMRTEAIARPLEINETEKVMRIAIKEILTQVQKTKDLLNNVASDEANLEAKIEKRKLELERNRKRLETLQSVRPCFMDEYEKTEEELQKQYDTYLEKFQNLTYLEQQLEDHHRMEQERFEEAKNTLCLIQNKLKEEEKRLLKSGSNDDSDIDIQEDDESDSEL

EGFP-IFT38(WT) (human) [3] = molecular target: T1, EGFP-IFT38(WT) (human); remark: listed apart in the source
EGFP-IFT38(ΔN) (human) = molecular target: T6, EGFP-IFT38(ΔN) (human) (UniProt Q96AJ1)
T6 sequence: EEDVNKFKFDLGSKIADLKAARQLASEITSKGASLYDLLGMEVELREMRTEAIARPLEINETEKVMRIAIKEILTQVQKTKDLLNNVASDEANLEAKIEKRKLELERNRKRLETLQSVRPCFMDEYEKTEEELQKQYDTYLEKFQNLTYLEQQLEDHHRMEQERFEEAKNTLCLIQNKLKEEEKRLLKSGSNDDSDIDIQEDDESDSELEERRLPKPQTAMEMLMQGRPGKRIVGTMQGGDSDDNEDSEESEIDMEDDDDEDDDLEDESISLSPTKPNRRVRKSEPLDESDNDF

binding [1]: binds weakly | binding (EGFP-IFT38(WT) (human) [2]): binds | binding (EGFP-IFT57): no binding | binding (EGFP-IFT88): no binding | binding (EGFP-IFT52): no binding
Molecule: all the BBSome subunits plus ARL6 fused to tRFP (co-expressed) (from UniProt Q8NFJ9 1-593; Q9BXC9 1-721; Q96RK4 1-519; Q8N3I7 1-341; Q8IWZ6 1-715; Q8TAM2 1-541; Q3SYG4 1-887; A8MTZ0 1-92; Q9H0F7 1-186) (complex)

binding (EGFP-IFT38(ΔC) (human)): binds | binding (EGFP-IFT38(WT) (human) [3]): binds | binding (EGFP-IFT38(ΔN) (human)): no binding
B1: mChe-fused IFT80 (protein, UniProt Q9P2H3 1-777)
chain: MRLKISLLKEPKHQELVSCVGWTTAEELYSCSDDHQIVKWNLLTSETTQIVKLPDDIYPIDFHWFPKSLGVKKQTQAESFVLTSSDGKFHLISKLGRVEKSVEAHCGAVLAGRWNYEGTALVTVGEDGQIKIWSKTGMLRSTLAQQGTPVYSVAWGPDSEKVLYTAGKQLIIKPLQPNAKVLQWKAHDGIILKVDWNSVNDLILSAGEDCKYKVWDSYGRPLYNSQPHEHPITSVAWAPDGELFAVGSFHTLRLCDKTGWSYALEKPNTGSIFNIAWSIDGTQIAGACGNGHVVFAHVVEQHWEWKNFQVTLTKRRAMQVRNVLNDAVDLLEFRDRVIKASLNYAHLVVSTSLQCYVFSTKNWNTPIIFDLKEGTVSLILQAERHFLLVDGSSIYLYSYEGRFISSPKFPGMRTDILNAQTVSLSNDTIAIRDKADEKIIFLFEASTGKPLGDGKFLSHKNEILEIALDQKGLTNDRKIAFIDKNRDLCITSVKRFGKEEQIIKLGTMVHTLAWNDTCNILCGLQDTRFIVWYYPNTVYVDRDILPKTLYERDASEFSKNPHIVSFVGNQVTIRRADGSLVHISITPYPAILHEYVSSSKWEDAVRLCRFVKEQTMWACLAAMAVANRDMTTAEIAYAAIGEIDKVQYINSIKNLPSKESKMAHILLFSGNIQEAEIVLLQAGLVYQAIQININLYNWERALELAVKYKTHVDTVLAYRQKFLETFGKQETNKRYLHYAEGLQIDWEKIKAKIEMEITKEREQSSSSQSSKSIGLKP
